T1: RBFOX1 RRM (Homo sapiens, UniProt Q9NWB1 109-208)
T1 sequence: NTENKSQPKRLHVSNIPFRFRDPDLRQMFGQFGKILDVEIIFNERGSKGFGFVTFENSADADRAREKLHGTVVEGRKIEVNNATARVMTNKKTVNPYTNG

B1: CGUAUCU (DNA:RNA)
RNA: GGGAGACCGGAAUUCAGAUUGUCCCGUAUCUUUAAAUCCCGUCGUAGCCACCA
DNA 1: CAATCTGAATTCCGGTCTCCC
DNA 2: TGGTGGCTACGACGGGATT
B2: CUCCAUA (DNA:RNA)
RNA: B1 RNA with G26U, U27C, A28C, U29A, C30U, U31A
DNA 1: CAATCTGAATTCCGGTCTCCC
DNA 2: TGGTGGCTACGACGGGATT
B3: AAACGGC (DNA:RNA)
RNA: GGGAGACCGGAAUUCAGAUUGUCCAAACGGCUUAAAUCCCGUCGUAGCCACCA
DNA 1: CAATCTGAATTCCGGTCTCCC
DNA 2: TGGTGGCTACGACGGGATT
B4: CUGUCGA (DNA:RNA)
RNA: B3 RNA with A25C, A26U, A27G, C28U, G29C, C31A
DNA 1: CAATCTGAATTCCGGTCTCCC
DNA 2: TGGTGGCTACGACGGGATT
B5: AAUCGUG (DNA:RNA)
RNA: B3 RNA with A27U, G30U, C31G
DNA 1: CAATCTGAATTCCGGTCTCCC
DNA 2: TGGTGGCTACGACGGGATT
B6: GAGCUCA (DNA:RNA)
RNA: B3 RNA with A25G, A27G, G29U, G30C, C31A
DNA 1: CAATCTGAATTCCGGTCTCCC
DNA 2: TGGTGGCTACGACGGGATT
B7: CUUGAGU (DNA:RNA)
RNA: B1 RNA with G26U, A28G, U29A, C30G
DNA 1: CAATCTGAATTCCGGTCTCCC
DNA 2: TGGTGGCTACGACGGGATT
B8: AUGAAGU (DNA:RNA)
RNA: B3 RNA with A26U, A27G, C28A, G29A, C31U
DNA 1: CAATCTGAATTCCGGTCTCCC
DNA 2: TGGTGGCTACGACGGGATT
B9: UACAAAG (DNA:RNA)
RNA: B3 RNA with A25U, A27C, C28A, G29A, G30A, C31G
DNA 1: CAATCTGAATTCCGGTCTCCC
DNA 2: TGGTGGCTACGACGGGATT
B10: ACAAGCG (DNA:RNA)
RNA: B3 RNA with A26C, C28A, G30C, C31G
DNA 1: CAATCTGAATTCCGGTCTCCC
DNA 2: TGGTGGCTACGACGGGATT
B11: CGUAGGG (DNA:RNA)
RNA: B1 RNA with U29G, C30G, U31G
DNA 1: CAATCTGAATTCCGGTCTCCC
DNA 2: TGGTGGCTACGACGGGATT
B12: CGAGGUC (DNA:RNA)
RNA: B3 RNA with A25C, A26G, C28G, G30U
DNA 1: CAATCTGAATTCCGGTCTCCC
DNA 2: TGGTGGCTACGACGGGATT
B13: AGAUUAA (DNA:RNA)
RNA: B3 RNA with A26G, C28U, G29U, G30A, C31A
DNA 1: CAATCTGAATTCCGGTCTCCC
DNA 2: TGGTGGCTACGACGGGATT
B14: GUUAUCA (DNA:RNA)
RNA: B1 RNA with C25G, G26U, U31A
DNA 1: CAATCTGAATTCCGGTCTCCC
DNA 2: TGGTGGCTACGACGGGATT
B15: GCUUGCU (DNA:RNA)
RNA: B1 RNA with C25G, G26C, A28U, U29G
DNA 1: CAATCTGAATTCCGGTCTCCC
DNA 2: TGGTGGCTACGACGGGATT
B16: GUUCGGU (DNA:RNA)
RNA: B3 RNA with A25G, A26U, A27U, C31U
DNA 1: CAATCTGAATTCCGGTCTCCC
DNA 2: TGGTGGCTACGACGGGATT
B17: CUCCCUU (DNA:RNA)
RNA: B1 RNA with G26U, U27C, A28C, U29C, C30U
DNA 1: CAATCTGAATTCCGGTCTCCC
DNA 2: TGGTGGCTACGACGGGATT
B18: GUUUCCU (DNA:RNA)
RNA: B1 RNA with C25G, G26U, A28U, U29C
DNA 1: CAATCTGAATTCCGGTCTCCC
DNA 2: TGGTGGCTACGACGGGATT
B19: CUCGCUC (DNA:RNA)
RNA: B3 RNA with A25C, A26U, A27C, C28G, G29C, G30U
DNA 1: CAATCTGAATTCCGGTCTCCC
DNA 2: TGGTGGCTACGACGGGATT
B20: GCACCAC (DNA:RNA)
RNA: B3 RNA with A25G, A26C, G29C, G30A
DNA 1: CAATCTGAATTCCGGTCTCCC
DNA 2: TGGTGGCTACGACGGGATT
B21: CACUUCU (DNA:RNA)
RNA: B1 RNA with G26A, U27C, A28U
DNA 1: CAATCTGAATTCCGGTCTCCC
DNA 2: TGGTGGCTACGACGGGATT
B22: UUAUCGU (DNA:RNA)
RNA: B3 RNA with A25U, A26U, C28U, G29C, C31U
DNA 1: CAATCTGAATTCCGGTCTCCC
DNA 2: TGGTGGCTACGACGGGATT
B23: UAGGCGU (DNA:RNA)
RNA: B3 RNA with A25U, A27G, C28G, G29C, C31U
DNA 1: CAATCTGAATTCCGGTCTCCC
DNA 2: TGGTGGCTACGACGGGATT
B24: CAACCGC (DNA:RNA)
RNA: B3 RNA with A25C, G29C
DNA 1: CAATCTGAATTCCGGTCTCCC
DNA 2: TGGTGGCTACGACGGGATT
B25: CUUUGGG (DNA:RNA)
RNA: B3 RNA with A25C, A26U, A27U, C28U, C31G
DNA 1: CAATCTGAATTCCGGTCTCCC
DNA 2: TGGTGGCTACGACGGGATT
B26: GUUUGAA (DNA:RNA)
RNA: B3 RNA with A25G, A26U, A27U, C28U, G30A, C31A
DNA 1: CAATCTGAATTCCGGTCTCCC
DNA 2: TGGTGGCTACGACGGGATT
B27: CCAAACU (DNA:RNA)
RNA: B1 RNA with G26C, U27A, U29A
DNA 1: CAATCTGAATTCCGGTCTCCC
DNA 2: TGGTGGCTACGACGGGATT
B28: GCUACCC (DNA:RNA)
RNA: B1 RNA with C25G, G26C, U29C, U31C
DNA 1: CAATCTGAATTCCGGTCTCCC
DNA 2: TGGTGGCTACGACGGGATT
B29: UUUAAAG (DNA:RNA)
RNA: B1 RNA with C25U, G26U, U29A, C30A, U31G
DNA 1: CAATCTGAATTCCGGTCTCCC
DNA 2: TGGTGGCTACGACGGGATT
B30: ACAGCCU (DNA:RNA)
RNA: B3 RNA with A26C, C28G, G29C, G30C, C31U
DNA 1: CAATCTGAATTCCGGTCTCCC
DNA 2: TGGTGGCTACGACGGGATT
B31: GAUACGU (DNA:RNA)
RNA: B1 RNA with C25G, G26A, U29C, C30G
DNA 1: CAATCTGAATTCCGGTCTCCC
DNA 2: TGGTGGCTACGACGGGATT

Substitutions are numbered along the chain they refer to; changes in the protein carry UniProt numbers. This is one part of the list.

This assay deals with T1, RBFOX1 RRM. Briefly: EMSA; HiTS-Eq, 1 nM pool, 10 min; buffer printed only for the single-RNA assays: 10 mM Tris pH 7.5, 150 mM NaCl, 3.4 mM EDTA, 0.001% NP-40, 30 C. The conditions noted are these: tags: His6 N-terminal (pET28a); label: 5' 32P. In outline: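 Purified RbFox RRM (wild type or mutant) was equilibrated for 10 min in 50 µL with 1 nM of a 5′-radiolabelled pool of RNA with 7 randomized nucleotides, its flanks annealed to DNA oligonucleotides, across increasing protein concentrations. Free RNA was separated by 8% native PAGE, excised, reverse-transcribed, PCR-barcoded and sequenced on an Illumina HiSeq 2500. Relative association constants came from read-count changes of each variant against the control reaction, normalised to the cognate motif.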
(In EMSA bound probe runs differently from free probe, usually more slowly.)
Regarding B1, the binding signal is 0.00933 KA relative to UGCAUGU.
As for B2, the figure is 0.0015 KA relative to UGCAUGU.
In the case of B3, the binding signal is 0.00737 KA relative to UGCAUGU.
B4: the binding signal was 0.0178 KA relative to UGCAUGU.
As for B5, the figure is 0.0103 KA relative to UGCAUGU; as for B6, 0.0104 KA relative to UGCAUGU.
The figure for B7 is 0.0138 KA relative to UGCAUGU; for B8 it is 0.00743 KA relative to UGCAUGU.
As for B9, the figure is 0.00661 KA relative to UGCAUGU.
For B10, the binding signal was 0.00436 KA relative to UGCAUGU.
On to B11, for which the binding signal was 0.00229 KA relative to UGCAUGU.
Take B12: the binding signal is 0.0175 KA relative to UGCAUGU.
As for B13, the figure is 0.00242 KA relative to UGCAUGU; as for B14, 0.0074 KA relative to UGCAUGU.
For B15, the binding signal is 0.0354 KA relative to UGCAUGU.
The figure for B16 is 0.0185 KA relative to UGCAUGU.
For the molecule B17, the binding signal was 0.00176 KA relative to UGCAUGU.
As for B18, the figure is 0.0146 KA relative to UGCAUGU.
Consider B19, for which the binding signal was 0.00968 KA relative to UGCAUGU.
As for B20, the figure is 0.00636 KA relative to UGCAUGU; as for B21, 0.00466 KA relative to UGCAUGU; as for B22, 0.0147 KA relative to UGCAUGU.
The figure for B23 is 0.0146 KA relative to UGCAUGU; for B24 it is 0.00293 KA relative to UGCAUGU.
As for B25, the figure is 0.00295 KA relative to UGCAUGU; as for B26, 0.023 KA relative to UGCAUGU.
Consider B27, for which the binding signal is 0.000321 KA relative to UGCAUGU.
Turning to B28, the binding signal was 0.0102 KA relative to UGCAUGU.
As for B29, the figure is 0.00776 KA relative to UGCAUGU.
As to B30, the binding signal was 0.0038 KA relative to UGCAUGU.
Regarding B31, the binding signal is 0.0132 KA relative to UGCAUGU.

Values taken from publication PMC9911399, “Two distinct binding modes provide the RNA-binding protein RbFox with extraordinary sequence specificity”.
